Data on 42 compounds can be found in ChEMBL document CHEMBL4888484, “Replenishing the malaria drug discovery pipeline: Screening and hit evaluation of the MMV Hit Generation Library 1 (HGL1) against asexual blood stage Plasmodium falciparum ,using a nano luciferase reporter read-out” (2022).

Each structure is given as a SMILES string. About 540 (0.36%) of roughly 150,000 compounds showed an effect of 50% or more. This is one part of the list.

The assay concerns Plasmodium falciparum. Put plainly: Primary screen in NF54 nanoGlo assay, in single point, at 2uM, 72h; a lower Z score goes with more inhibition. It counts as functional, Erythrocyte. To be noted: timepoint 72 hour.
Usually % Inhibition stands for the relative decrease from the control value, in per cent. Regarding `Cc1cc(CNC(=O)c2ccc(S(=O)(=O)N(C)C)cc2)ncn1`, the “% Inhibition” value was found to be 17% and the Z score was -2.18.

As to `CCOc1ccc(-n2ccn3c(C[C@@H](C)CC(=O)Nc4cccc(F)c4)nnc3c2=O)cc1`, the “% Inhibition” value is listed as 4% and the Z score is -0.61.

As for `Cc1nnc(CN(CCN2CCOCC2)c2ccccc2)o1`, the “% Inhibition” value is on record as -5% and the Z score was determined as 0.58.

Turning to `CCN(CC)CCNC(=O)c1nc(C2CC2)no1`, the “% Inhibition” value is recorded as 3% and the Z score is listed as -0.29.

Turning to `Cc1nn(C)c(C)c1CN1CCN(Cc2noc(C3CCCCC3)n2)CC1`, the “% Inhibition” value is reported as 5% and the Z score is given as -0.73.

`Cn1c(N)c2c(=O)n(C)c(-c3cccc4ccccc34)cc2c(C#N)c1=O`: the “% Inhibition” value is on record as -14% and the Z score is reported as 2.56.

With `Cc1nc(N2CCC[C@H](C(=O)Nc3cccc(Cl)c3)C2)c2c(C)c(C)oc2n1`, the “% Inhibition” value stood at 4% and the Z score was -0.52.

Regarding `CC(C)Oc1ccccc1CC(=O)N[C@H]1CC[C@H](CO)CC1`, the “% Inhibition” value is -3% and the Z score is listed as 0.27.

On to `Cc1snnc1C(=O)NCc1cccs1`, for which the “% Inhibition” value is 1% and the Z score is -0.1.

For the compound `Cc1cc(=O)n(CC(=O)Nc2ccccc2C)c(N2CCc3ccccc3C2)n1`, the “% Inhibition” value is listed as -19% and the Z score stood at 1.7.

As for `O=C(Nc1ccccc1N1CCCN(Cc2ccc(OC(F)(F)F)cc2)C1=O)c1ccccc1Cl`, the “% Inhibition” value was -2% and the Z score was 0.4.

On to `COc1ccc(N[C@H]2CCCN(Cc3cc(F)ccc3-n3nc(C)cc3C)C2)cc1OC`, for which the “% Inhibition” value is on record as -5% and the Z score is reported as 0.61.

`Cc1ccc(-c2c(C)nn3c2NC(=O)CCC3=O)cc1S(=O)(=O)NCCCc1ccccc1`: the “% Inhibition” value is given as 13% and the Z score is -1.5.

For `COc1ccc(F)cc1C(=O)N1CCn2nc(CCC(=O)NC(C)C)cc2C1`, the “% Inhibition” value is on record as 16% and the Z score is -1.98.

Consider `CC(C)[C@](C)(NCc1nc(C(C)(C)C)co1)C(N)=O`, for which the “% Inhibition” value was -8% and the Z score is given as 1.48.

On to `CC(C)Oc1c(Cl)cc(CN(C)[C@H]2CCN(C)C2)cc1Cl`, for which the “% Inhibition” value is recorded as -13% and the Z score came out at 2.58.

As for `CCN(CCOc1c(C)cccc1C)C(=O)NCCN1CCCC1=O`, the “% Inhibition” value is on record as -11% and the Z score was 1.75.

In the case of `COc1ccc(OCC(=O)Nc2cc(C)nn2-c2nc3c(cnn3-c3ccc(C)cc3)c(=O)[nH]2)cc1`, the “% Inhibition” value is listed as -15% and the Z score is recorded as 2.54.

With `C[C@@H](Cc1cccnc1)NC(=O)c1cc(COc2c(F)cccc2F)on1`, the “% Inhibition” value turned out to be 14% and the Z score is -1.78.

Turning to `CCC(C)(C)COC(=O)c1cnn(C)c1C(F)F`, the “% Inhibition” value amounted to 2% and the Z score is -0.17.

Turning to `CN(Cc1c(Cl)ccc(O)c1Cl)C[C@H]1CC(=O)N(C)C1`, the “% Inhibition” value is given as -13% and the Z score turned out to be 2.02.

For `CCc1ccc(C(=O)N(C)[C@@H](C)CS(=O)(=O)CC)o1`, the “% Inhibition” value is -5% and the Z score worked out at 0.61.

Take `COc1c(F)cc(NC(=O)c2ccc(Oc3ccncc3)c(Cl)c2)cc1F`: the “% Inhibition” value is reported as -16% and the Z score is 1.82.

In the case of `CC(=O)Nc1cccc(NC(=O)c2cc(O)ncn2)c1`, the “% Inhibition” value stood at 7% and the Z score is -1.2.

Turning to `CCOC(=O)c1cc(-c2ccc(N3CCN(C(=O)c4c(F)cc(F)cc4F)CC3)cc2)n(-c2ccc(F)cc2)n1`, the “% Inhibition” value is on record as -7% and the Z score was determined as 1.18.

Consider `O[C@H]1CCN(c2nc3ccc(Cl)cc3s2)C[C@@H]1O`, for which the “% Inhibition” value worked out at 9% and the Z score was -1.37.

Consider `Cc1noc(-c2cc(S(=O)(=O)Nc3ccc(F)cc3Cl)c(C)s2)c1C`, for which the “% Inhibition” value was determined as 6% and the Z score is listed as -1.06.

With `C[C@@H](C(=O)Nc1nccs1)c1ccc(C[C@@H]2CCCC2=O)cc1`, the “% Inhibition” value is -6% and the Z score is recorded as 0.81.

For the compound `CCN1CCN(Cc2nc(C(F)(F)F)no2)[C@H]2CS(=O)(=O)C[C@H]21`, the “% Inhibition” value is listed as -23% and the Z score turned out to be 2.08.

As to `CCOc1ccccc1C=C(C(=O)NCCc1ccc(OC)cc1)C(=O)NCCc1ccc(OC)cc1`, the “% Inhibition” value was -6% and the Z score was found to be 1.03.

Take `O[C@H]1CN(CC2CCCCC2)CC[C@@H]1N1CCCCCC1`: the “% Inhibition” value was determined as 16% and the Z score is reported as -2.02.

Take `Cc1noc(C)c1CCc1nc(C2CC2)nn1CCO`: the “% Inhibition” value is on record as -6% and the Z score came out at 1.09.

`CCc1ncc(CN[C@@H](Cc2ccc(C)cc2)c2cccnc2)s1`: the “% Inhibition” value was -8% and the Z score was found to be 1.07.

For the compound `Cn1cc(C(=O)N2CC[C@@]3(CCCN(C4CCCCC4)C3=O)C2)cn1`, the “% Inhibition” value is on record as -9% and the Z score was found to be 1.09.

Take `CN(CCCNC(=O)Nc1cn(C)nn1)c1ccccc1`: the “% Inhibition” value is -8% and the Z score came out at 1.64.

For `CN(Cc1ccc2cc(O)ccc2c1)Cc1cc[nH]n1`, the “% Inhibition” value is on record as -16% and the Z score was 1.45.

As for `C[C@@H](c1nccs1)N(C)C(=O)NCC1(CN2CCOCC2)CC1`, the “% Inhibition” value was determined as 11% and the Z score is given as -1.48.

In the case of `Cc1ccc(CNC(=O)c2ccc(S(=O)(=O)N[C@H]3CCOC3)cc2)o1`, the “% Inhibition” value is given as -5% and the Z score is listed as 0.47.

For `CC1(C)C(NC(=O)Nc2ccc(N3CCCC3)c(F)c2)C2CCOC21` (centres undefined), the “% Inhibition” value was -8% and the Z score is reported as 0.97.

Take `O=C(NCc1ccccn1)c1ccc2nc(C3CC3)oc2c1`: the “% Inhibition” value is listed as -10% and the Z score is 1.36.

As for `O=C(O)CC[C@@H]1CN(Cc2cccc(Cl)c2)CC[C@@H]1N1CCN(c2ccccc2F)CC1`, the “% Inhibition” value was 5% and the Z score is listed as -0.94.

As to `Cc1ccc(-c2noc(-c3c(O)c4ccccc4n(C)c3=O)n2)cc1`, the “% Inhibition” value is -1% and the Z score is recorded as 0.15.
